Source: the supplement of paper PMC3334620
In all, about 33,000 sequences were measured (“E-score (-0.5 to 0.5)”: median about -0.054, highest 2% from about 0.35 on). This is one part of the list.

Biological target: T1, Stb5 (UniProt P38699)
T1 sequence: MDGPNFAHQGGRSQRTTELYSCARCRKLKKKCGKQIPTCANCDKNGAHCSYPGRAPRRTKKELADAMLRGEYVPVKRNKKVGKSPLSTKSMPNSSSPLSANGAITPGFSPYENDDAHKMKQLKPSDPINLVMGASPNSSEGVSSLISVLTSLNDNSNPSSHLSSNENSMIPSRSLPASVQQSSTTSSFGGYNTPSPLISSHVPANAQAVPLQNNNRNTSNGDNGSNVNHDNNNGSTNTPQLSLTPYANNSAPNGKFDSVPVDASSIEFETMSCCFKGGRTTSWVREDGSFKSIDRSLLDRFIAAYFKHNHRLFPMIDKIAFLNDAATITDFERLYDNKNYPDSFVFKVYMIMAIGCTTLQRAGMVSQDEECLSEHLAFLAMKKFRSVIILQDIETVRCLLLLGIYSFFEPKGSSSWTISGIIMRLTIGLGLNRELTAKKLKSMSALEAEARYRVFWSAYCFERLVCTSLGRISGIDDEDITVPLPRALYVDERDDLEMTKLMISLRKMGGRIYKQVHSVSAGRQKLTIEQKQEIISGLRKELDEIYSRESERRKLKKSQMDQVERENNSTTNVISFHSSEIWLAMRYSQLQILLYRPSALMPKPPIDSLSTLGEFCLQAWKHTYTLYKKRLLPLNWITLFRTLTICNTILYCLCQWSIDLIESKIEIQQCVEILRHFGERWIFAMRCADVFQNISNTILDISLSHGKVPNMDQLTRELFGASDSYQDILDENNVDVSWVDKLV
Experiment: PBM E-score (8-mer binding enrichment) (E-score (-0.5 to 0.5)); higher = stronger / more preferred TF binding; most listed sequences are background and not binding sites
Details: protein concentration: 200 nM; construct: GST-full length
How it was run: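 Yeast transcription factors, full-length or as DNA-binding domains, were expressed with a GST tag using PURExpress in vitro transcription/translation. At about 100-200 nM they were applied to universal all-10-mer Agilent arrays, double-stranded by primer extension on fresh or once-stripped slides. Fluorescent anti-GST detected bound protein, and masliner normalised the scans. E-scores for ungapped eight-base words, pooled with reverse complements, came from the Universal PBM Analysis Suite.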

Sequence	PBM E-score
ATAGTTGG	-0.0158
AGTCCGAA	0.299
AATAAGAG	0.212
CCCAAGGG	-0.177
GTGACGAA	-0.131
ACCGGGAC	0.217
TGCGTAAA	-0.0108
ATGTCCAA	-0.0119
TATGCTCA	-0.157
GCTGTGAA	-0.141
CCTTGCAA	-0.312
CCCAACCA	-0.0714
ACAGGTTA	0.0309
ACGGGAGA	-0.0373
ATTCAAAC	-0.0568
AGTAGTCG	-0.0258
CAGTGATG	-0.218
AAAAAATC	-0.0793
ACTTGGAC	0.0571
GGGGGGAC	-0.0771
CCGCTGAG	0.177
ACCTGCCG	-0.0814

Sequence	PBM E-score
ACCTTCTC	-0.198
ATTGCGCC	0.184
AGCGGCTA	0.214
AGACATAG	-0.0198
TCAATGAA	-0.157
AGGTTAGC	0.0304
AGAACACA	-0.307
CGAACATA	0.0267
CTATGTGA	-0.0254
GGATCCCA	-0.147
TAGACCAA	-0.239
GCACCTAC	0.127
CAGTCAAG	-0.338
CCAGCCAA	-0.126
AGCTCACT	-0.344
CGTTGCTA	0.123
AGTTCGTG	-0.121
AGCTATCG	-0.103
CTTAACGA	-0.0773
CGTGTTGA	0.0142
CCTCGTAG	-0.228
GTACTTGA	-0.172

Sequence	PBM E-score
CGCGGCAA	0.263
ATTTCATA	-0.096
ACTACATG	-0.233
GTCAGGCA	-0.00262
ATCTACGG	0.265
CGGATACG	0.0735
CAGTCGGC	0.244
ACAAAGAG	-0.148
CAGAGTCC	0.164
GAATCCTC	-0.239
CCCAGCTC	-0.176
CGTGGCAC	-0.0381
ACGTACAA	-0.133
CTTTAGGC	0.036
CCCTAGCC	-0.102
GCCCGGCA	0.249
CTCAACGA	0.00902
ATGACGCA	-0.159
ATGGGAGG	0.0364
TACAGCGA	-0.248
CGGGTGTA	0.37
GCTTTCCC	-0.00065

Sequence	PBM E-score
CTTGTACC	0.043
AAGGTTAC	-0.293
AAATGGCT	-0.197
ATTCAATG	-0.101
ACTACTAC	-0.00154
ATCGTCTC	-0.0221
AGCTCGTA	-0.28
TGCATGCA	-0.23
AGAAATGA	-0.166
TACCAGAA	-0.0189
ATGACCCC	0.278
CGTTCGAC	-0.0847
ACCGACTC	0.215
AAGTAGAG	-0.202
GGGCTGAC	0.0657
ACGGGTAC	-0.079
CTATTACC	0.313
CCAGTGGC	-0.176
TAAAATGA	-0.0173
AAGGTCGG	0.317
CCCACTAA	-0.0418
ACACATCT	-0.153

Sequence	PBM E-score
AGCTTCTA	-0.0951
AATAAGTG	-0.129
CGCGAACA	-0.109
CTTTCCGA	0.0686
ATGACCGC	0.381
ACTGATCA	-0.00756
AATTGCTC	-0.00678
ATAGATTA	-0.0553
GCCCGAAA	0.159
CCGCTTTA	0.337
GGGTGTTA	0.25
AGACGCTG	-0.0878
GCCGTCCA	0.223
CATCGCAG	-0.0956
CCCTAGCG	-0.0943
ACAATCAA	-0.148
GACGGAGC	0.311
AACGACAA	-0.00501
AAATGATG	-0.24
AGATTATC	-0.143
ATTACCGA	0.38
